Data taken from the supplement of paper PMC11417369.
± gives the standard deviation of the averaged measurements. Some of the results follow.

What follows are sequences tested on PfAP2-G AP2 domain (GST-tagged) (assay: gcPBM binding intensity (ln(normalized median fluorescence intensity)); higher = stronger DNA binding).
Summary of the method: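 GST-tagged P. falciparum DNA-binding domains produced in E. coli were incubated for 1 h on an Agilent 4 × 180k array of primer-extended double-stranded 36-bp intergenic genomic probes with negative controls. Binding intensity is the highest Masliner-normalised natural-log median intensity across replicate spots of either probe orientation, with bound protein detected by Alexa488 anti-GST antibody at 488 nm.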

Row | Sequence | gcPBM binding intensity (ln)
1 | TATATATGTATATTTTGTACGTATTTATTTACATGA [XGTACX_site4584] | 11.4 ± 0.88
2 | AAAAAAAAAAAAAACACACACACACGCATACACATA [CACACA_site7364] | 10.2 ± 0.2
3 | ATAAATAAAACAAATAGTACAATATAAAAAAAAAGG [XGTACX_site87] | 11.1 ± 0.45
4 | AAGAGGATACACAATGTGCACTTTTTTTTTTTTTTT [GTGCAC_site9415] | 10.7 ± 0.32
5 | TATACAGATATATATACACACATATATATAAATACA [CACACA_site4383] | 9.795 ± 0.049
6 | TATATATATAATATATGTACTCATATTAAGAGATAC [XGTACX_site1354] | 11.4 ± 0.86
7 | AATAGTTGCTAAAGGTGTACAATACATTTATTAGAA [XGTACX_site2773] | 11.3 ± 0.85
8 | TATTACTTAAATAAAAGTACATATAACATTTTAGTT [XGTACX_site196] | 11.4 ± 0.93
9 | GAAAATAAAATATTAGTGCATTATTTGATCAATAAT | 9.725 ± 0.078
10 | TCTTTGGTATTTACATGTACATATTCTTAAAAACAT [XGTACX_site3124] | 11.3 ± 0.84
11 | TGTATAGTCTAAAGTTGTACAAAAAAAAAAAAAAAA [XGTACX_site5764] | 11.3 ± 1
12 | CGAAAAATATGTATGAGTACTTATATTTAAACTATA [XGTACX_site1911] | 11.2 ± 0.64
13 | ATAAATATTGCGTGCACACACATAATATTTATATAT [CACACA_site7136] | 10.5 ± 0.51
14 | TATAATATATTCATGTGTACATATATTTCGAACATA [XGTACX_site1754] | 11.6 ± 1.1
15 | ATGTCATAAAAACATATACACACTTGAAATATAAAA [CACACA_site2329] | 10 ± 0.24
16 | CATTCCTATTATTATACACACAAATTAAGAATTCAA [CACACA_site787] | 10.1 ± 0.38
17 | ATATTTATTTTATAAAGTACTAAAAAATATATTATA [XGTACX_site8522] | 11 ± 0.61
18 | ATTTTTTTGTTAATTTGTACATAAAATTTTATTTTA [XGTACX_site7007] | 10.9 ± 0.45
19 | GGATAAGAGGCATATACACACAATTTAAAAAAATAA [CACACA_site4657] | 10.2 ± 0.42
20 | AAAAAAAAAAAAAAAACACACAAACGCTTTTTTTTT [CACACA_site4545] | 10.4 ± 0.13
21 | AATATATATGAAAAAAGTACTCAAGGAATAAAAAAA [XGTACX_site7720] | 11.3 ± 0.67
22 | CATTTAATAATAACAAGTACACAAAGATGTATAACA [XGTACX_site8315] | 11.5 ± 1
23 | ATGATAAATATAAGTTGTACATATATCTATGTGCAT [XGTACX_site6010] | 11.3 ± 0.85

Row | Sequence | gcPBM binding intensity (ln)
24 | CATAAATACTATATATGTACGTAATTTTTAAAACAT [XGTACX_site7710] | 11.6 ± 0.83
25 | GGGTGCCAAATTAGCACACACATATATACCTGAATT [CACACA_site5551] | 10.2 ± 0.2
26 | GTTAAAAAAAGGAGAGATCTCACACAAATATATATA [GTGCAC_negctrl_site117] | 9.965 ± 0.007
27 | TTACAAATAATTTGTTGTACGCTTTTTTTCTTTTTT [XGTACX_site7199] | 11.7 ± 1.1
28 | TATATATATATATATGTGCGCATTACTTTAAGAATA | 10.3 ± 0.33
29 | TATTGTTATCTTTTATGTACTTAAAAAAATAAATTT [XGTACX_site4233] | 11.4 ± 1
30 | AAAAAGGTTATTGGTACACACATATGTATATAAATA [CACACA_site6402] | 11.3 ± 0.86
31 | TAATAAAACATATATACACACATTATATATACATAT [CACACA_site8495] | 9.86 ± 0.028
32 | TTTTTTTTTATTTGTTGTACGAGGTTTTAAAATTTT [XGTACX_site106] | 11.3 ± 0.73
33 | ACAATATCTAGATACACACACATATCTCTCAATCTA [CACACA_site656] | 10.08 ± 0.071
34 | TATAATATTCTATATGCATGTACACCATTCTTTATT [TGCATGCA_site688] | 11.4 ± 0.87
35 | GTAGGCATTAAAAAATGTACAAAATATTATGAATTG [XGTACX_site1615] | 10.7 ± 0.4
36 | TAAACACATATATAGACATGCAACTAGTTTTTATAA [TGCATGCA_site474] | 9.81 ± 0.071
37 | AAATCTTTGTGTGGATGTACTTTTATAAAAAAGAAT [XGTACX_site3830] | 11.3 ± 0.86
38 | TAATAAATAATGGTTACACACAAAATATAAAACTTA [CACACA_site3544] | 10.2 ± 0.28
39 | AATTATAAATCTTGCACACAAAAAAAATAATAAAAA [CACACA_site2434] | 10.2 ± 0.24
40 | AATTTTTAGTATATAACATAAAATAAAATAAAATAA [GTGCAC_negctrl_site696] | 9.835 ± 0.021
41 | TCTGTTCTTTTTTAATGTACAAGAAATATAAAATTC [XGTACX_site3600] | 11 ± 0.61
42 | TTTATTTAATTATGTTGTACATGTAGGATTTATTTT [XGTACX_site7078] | 11.3 ± 0.74
43 | TTATTTTTTTTTTTTTGTACACAATTTGACACATTA [XGTACX_site7983] | 11.5 ± 0.91
44 | AAAAAGGAAATAATAACACACATTAATAATTATAAA [CACACA_site3401] | 9.72 ± 0.085
45 | TAAAAAGTTATATTCACACACATACACATATAAATA [CACACA_site6398] | 10.07 ± 0.064
46 | TTATCTATAAATACGAGTACGCAAAATCATATAATA [XGTACX_site2447] | 11.6 ± 1.1

Row | Sequence | gcPBM binding intensity (ln)
47 | TTTATGTGTTATAAATGTACATAATATAATTCGTAT [XGTACX_site3845] | 11.1 ± 0.7
48 | TTTTTATAAAATTTTATGAGCTCGGAAAAAATAAAC [GTGCAC_negctrl_site637] | 10.5 ± 0.36
49 | ATCTGCATATATATATGTACATATTTTAGAATGCAC [XGTACX_site708] | 11.2 ± 0.81
50 | TTCTTTTTAAATTACACACACATATAAATATGTATA [CACACA_site7618] | 10.04 ± 0.071
51 | TTTTAATATTAAGATGTCTTTTACGTTTATTTTGTA [CACACA_negctrl_site765] | 9.9 ± 0.099
52 | ATTTACGCGCTTATTACACACACATACAAATAAGGA [CACACA_site9157] | 10.4 ± 0.33
53 | TAATTATTTGCCCTTACTCTGAACATTCGGAATTTA [CACACA_negctrl_site1278] | 10.2 ± 0.21
54 | GTATGAAATTATAATAGTACATATAAATAAAAAAAA [XGTACX_site8955] | 11.1 ± 0.64
55 | TATATATAATATATATATATGGAAATTCTTTTAAAT [XGTACX_negctrl_site50] | 9.83 ± 0.38
56 | TGTATTATATGTAAATGTACATTTAATATTTTATAT [XGTACX_site4461] | 11 ± 0.51
57 | TACGGTAAATAGTGTTGTACGATACAATTGTTTTCT [XGTACX_site8118] | 10.9 ± 0.42
58 | AAAATAAATAAATAAATATATATATATATATATATA [TGCATGCA_negctrl_site558] | 9.99 ± 0.78
59 | AAGGGGAAAAAAAAAAGTACACAAACATAGGATAAT [XGTACX_site377] | 11.7 ± 1
60 | CAATTAAAATGCAACGGTACACATAAAAAAAATAAA [XGTACX_site6216] | 11 ± 0.52
61 | ATATAAGGATAACCTAGTACATATTATATGAAACAA [XGTACX_site8459] | 10.7 ± 0.39
62 | CCACAAGTATATAGTAGTACAATTTTTTTCTCTTTA [XGTACX_site4403] | 11.4 ± 0.83
63 | GAAATAGAGAAACACACACACATATATTTATGTATT [CACACA_site3967] | 9.77 ± 0.028
64 | ATAAAAATAAAAAGATGTACGTATTTTTTTTTTTTT [XGTACX_site5329] | 11.6 ± 0.91
65 | TATAAATAAATGCGTACACACTAATAAAAAAAAAAA [CACACA_site4630] | 11.6 ± 1.1
66 | CATTATTATGATAGTTGTACAATTTTTATAAAAAAT [XGTACX_site4411] | 11.3 ± 0.49
67 | AATATTATAAATGATACACACTTAAAATACACCCAC [CACACA_site5498] | 10.8 ± 0.59
68 | TGAATATTTACTTTAGCACACAATTTGTATTTGATT [CACACA_site960] | 10.03 ± 0.064
69 | TTTTTTTTTTTTGAGTGTACTAAAATATTACCTTTT [XGTACX_site646] | 11.2 ± 0.99

Row | Sequence | gcPBM binding intensity (ln)
70 | TGGAAAAATAGGCACACACACATATATACCTATATA [CACACA_site4843] | 10.1 ± 0.12
71 | TTTTTTTTAAATATCACACACATATAACATATTCTA [CACACA_site7687] | 9.99 ± 0.18
72 | ATATGTATATAAATGTGTACTTATAAATATATATAT [XGTACX_site3250] | 11.5 ± 1.1
73 | AATATATTTTAATACACACACACATATATATATATA [CACACA_site5969] | 10.3 ± 0.43
74 | TCTTTTAAAAATATAAAAAGGAATATATAAAAATGT [CACACA_negctrl_site332] | 10.1 ± 0.15
75 | AATATATTCATCATATCAATATTGTCAAGCAAACGA [TGCATGCA_negctrl_site37] | 10.1 ± 0.26
76 | TATTCTGTGTATAAAAGTACAAATATTTAAATGTAT [XGTACX_site8234] | 11.1 ± 0.78
77 | TATAAACATATAAAAAGTACATACCAATTAATATTA [XGTACX_site967] | 11.3 ± 1
78 | GGATAAAATGCTACGAGTACATAAGCATTTTTCCCT [XGTACX_site7796] | 11.7 ± 1.2
79 | TTCTTTAATAAAATAATCTCAAAGAAAATTTTTTCT [GTGCAC_negctrl_site589] | 9.46 ± 0.13
80 | AATAAATAGATATATACACACATATATGTGTACATA [CACACA_site7476] | 11.6 ± 0.92
81 | TTATCCATTTTAATCACACATACTTTACTTTGGAAC [CACACA_site5584] | 10 ± 0.11
82 | GAATTTATTTTATTTTCACACACAAAAATAAATATC [CACACA_site8762] | 10.1 ± 0.21
83 | CATAAGCACAAGCACAAGCACACATTTATATATATA [CACACA_site882] | 10.1 ± 0.16
84 | CGCATATTTTATGTTTGTACTCATATGAATATCATA [XGTACX_site4717] | 11.3 ± 0.59
85 | TATATTATTTATATTTGTACACAGCGATATGAAATA [XGTACX_site987] | 11 ± 0.57
86 | TACAATTTAAAACACACACACAATAATACATATATA [CACACA_site1251] | 10.2 ± 0.15
87 | ATATTATTATAAACTTCACACATTTTATGGGTTTTT [CACACA_site4631] | 9.64 ± 0.24
88 | TTGTATATATTAAATTGTACTTATTTTTTGTATATA [XGTACX_site3251] | 11.4 ± 0.88
89 | CAAACACCCAAACACACACACACATACATACATACA [CACACA_site8044] | 10.7 ± 0.52
